Laboratory results: the supplement of paper PMC8728848
This is one part of the list.

Tests used:
Assay in all cases: glycan array binding signal (z-score within array); higher = stronger binding
Settings in all cases: glycan notation: IUPAC condensed, linker removed
[1] = target: Gal(b1-4)GalNAc(b1-3)[Fuc(a1-2)]Gal(b1-4)GlcNAc
In short: (§1)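 Glycan array data came from 3228 arrays in the Consortium for Functional Glycomics database, and only arrays with an available protein sequence were kept. Glycan names were put into IUPAC-condensed notation, and columns mapping to the same glycan were averaged. The binding signal is a within-array Z-score, averaged across arrays of one protein sequence run at different concentrations or buffers and across linkers. A negative Z-score can be read as non-binding.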

Gal(b1-4)Glc = target: Gal(b1-4)Glc
In short: as §1

Gal(b1-4)Glc6S = target: Gal(b1-4)Glc6S
In short: as §1

Gal(b1-4)GlcNAc = target: Gal(b1-4)GlcNAc
In short: as §1

[2] = target: Gal(b1-4)GlcNAc(a1-6)Gal(b1-4)GlcNAc
In short: as §1

Gal(b1-4)GlcNAc(b1-2)Man = target: Gal(b1-4)GlcNAc(b1-2)Man
In short: as §1

[3] = target: Gal(b1-4)GlcNAc(b1-2)Man(a1-3)Man(b1-4)GlcNAc(b1-4)GlcNAc
In short: as §1

[4] = target: Gal(b1-4)GlcNAc(b1-2)Man(a1-3)[Gal(b1-4)GlcNAc(b1-2)Man(a1-6)]Man(b1-4)GlcNAc(b1-4)GlcNAc
In short: as §1

[5] = target: Gal(b1-4)GlcNAc(b1-2)Man(a1-3)[Gal(b1-4)GlcNAc(b1-2)Man(a1-6)]Man(b1-4)GlcNAc(b1-4)[Fuc(a1-6)]GlcNAc
In short: as §1

[6] = target: Gal(b1-4)GlcNAc(b1-2)Man(a1-3)[Gal(b1-4)GlcNAc(b1-2)Man(a1-6)][Gal(b1-4)GlcNAc(b1-4)]Man(b1-4)GlcNAc(b1-4)[Fuc(a1-6)]GlcNAc
In short: as §1

[7] = target: Gal(b1-4)GlcNAc(b1-2)Man(a1-3)[Gal(b1-4)GlcNAc(b1-2)Man(a1-6)][GlcNAc(b1-4)]Man(b1-4)GlcNAc(b1-4)[Fuc(a1-6)]GlcNAc
In short: as §1

[8] = target: Gal(b1-4)GlcNAc(b1-2)Man(a1-3)[GlcNAc(b1-2)Man(a1-6)]Man(b1-4)GlcNAc(b1-4)GlcNAc
In short: as §1

[9] = target: Gal(b1-4)GlcNAc(b1-2)Man(a1-3)[GlcNAc(b1-4)][Gal(b1-4)GlcNAc(b1-2)Man(a1-6)]Man(b1-4)GlcNAc(b1-4)GlcNAc
In short: as §1

[10] = target: Gal(b1-4)GlcNAc(b1-2)Man(a1-3)[Man(a1-6)]Man(b1-4)GlcNAc(b1-4)GlcNAc
In short: as §1

[11] = target: Gal(b1-4)GlcNAc(b1-2)Man(a1-6)Man(b1-4)GlcNAc(b1-4)GlcNAc
In short: as §1

[12] = target: Gal(b1-4)GlcNAc(b1-2)Man(a1-6)[GlcNAc(b1-2)Man(a1-3)]Man(b1-4)GlcNAc(b1-4)GlcNAc
In short: as §1

[13] = target: Gal(b1-4)GlcNAc(b1-2)Man(a1-6)[Man(a1-3)]Man(b1-4)GlcNAc(b1-4)GlcNAc
In short: as §1

[14] = target: Gal(b1-4)GlcNAc(b1-2)[Gal(b1-4)GlcNAc(b1-4)]Man(a1-3)[Gal(b1-4)GlcNAc(b1-2)Man(a1-6)]Man(b1-4)GlcNAc(b1-4)GlcNAc
In short: as §1

[15] = target: Gal(b1-4)GlcNAc(b1-2)[Gal(b1-4)GlcNAc(b1-4)]Man(a1-3)[Gal(b1-4)GlcNAc(b1-2)[Gal(b1-4)GlcNAc(b1-6)]Man(a1-6)]Man(b1-4)GlcNAc(b1-4)GlcNAc
In short: as §1

[16] = target: Gal(b1-4)GlcNAc(b1-2)[Gal(b1-4)GlcNAc(b1-4)]Man(a1-3)[GlcNAc(b1-4)][Gal(b1-4)GlcNAc(b1-2)Man(a1-6)]Man(b1-4)GlcNAc(b1-4)GlcNAc
In short: as §1

[17] = target: Gal(b1-4)GlcNAc(b1-2)[Gal(b1-4)GlcNAc(b1-4)]Man(a1-3)[GlcNAc(b1-4)][Gal(b1-4)GlcNAc(b1-2)[Gal(b1-4)GlcNAc(b1-6)]Man(a1-6)]Man(b1-4)GlcNAc(b1-4)GlcNAc
In short: as §1

[18] = target: Gal(b1-4)GlcNAc(b1-2)[Gal(b1-4)GlcNAc(b1-6)]Man(a1-6)[Gal(b1-4)GlcNAc(b1-2)Man(a1-3)]Man(b1-4)GlcNAc(b1-4)GlcNAc
In short: as §1

B1: SSR2 (Sclerotium rolfsii) (protein)
chain: MVYKITVRVYQTNPDAFFHPVEKTVWKYANGGTWSITDDQHVLTMGGSGTSGTLRFHADNGESFTATFGVHNYKRWCDIVTNLAADETGMVINQQYYSQKNREEARERQLSNYQVKNAKGRNFQIVYTEAEGNDLHANLIIG
- glycan array binding signal (z-score) [1]: -0.299
- glycan array binding signal (z-score) (Gal(b1-4)Glc): -0.281
- glycan array binding signal (z-score) (Gal(b1-4)Glc6S): -0.277
- glycan array binding signal (z-score) (Gal(b1-4)GlcNAc): -0.292
- glycan array binding signal (z-score) [2]: -0.299
- glycan array binding signal (z-score) (Gal(b1-4)GlcNAc(b1-2)Man): -0.265
- glycan array binding signal (z-score) [3]: -0.281
- glycan array binding signal (z-score) [4]: -0.273
- glycan array binding signal (z-score) [5]: -0.282
- glycan array binding signal (z-score) [6]: -0.279
- glycan array binding signal (z-score) [7]: -0.287
- glycan array binding signal (z-score) [8]: 2.17
- glycan array binding signal (z-score) [9]: -0.259
- glycan array binding signal (z-score) [10]: -0.262
- glycan array binding signal (z-score) [11]: -0.275
- glycan array binding signal (z-score) [12]: 3.34
- glycan array binding signal (z-score) [13]: -0.278
- glycan array binding signal (z-score) [14]: -0.285
- glycan array binding signal (z-score) [15]: -0.291
- glycan array binding signal (z-score) [16]: -0.286
- glycan array binding signal (z-score) [17]: -0.287
- glycan array binding signal (z-score) [18]: -0.279
